Source: the supplement of paper PMC11876631
Residue numbers refer to the chain shown, from its start. In names and notes the source's numbering stands. ± gives the standard deviation of the averaged measurements. Laboratory Escherichia coli strains with one amino-acid change in an essential protein, pooled on minimal glucose agar with carbenicillin or gentamicin at twice the control MIC (plus kanamycin and chloramphenicol for the plasmids), 48 h. Fold change of barcode share against drug-free plates; higher = less susceptible. Active = above 20 in both replicates (the paper's putatively resistant). '<' = one read or none on drug, '>' = one read or none on a drug-free plate. Shares are relative, so most strains fall below 1 when a few take over. Listed are strains with at least 15 reads on both drug-free plates, and hits; most hits rest on fewer reference reads. Replicate rank correlation about 0.5. Edits are read from barcodes.

Target: Escherichia coli (laboratory strain)
Assay: barcode share on antibiotic plates over drug-free plates; higher = less susceptible
Description: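 A pool of E. coli strains, each edited to carry one amino-acid change in an essential protein, was grown for 48 h on minimal glucose agar with or without antibiotic; strain barcodes were sequenced; mean of two replicates.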

[1] = antibiotic: carbenicillin, 2× MIC (3.1 µg/mL)
[2] = antibiotic: gentamicin, 2× MIC (MIC 0.45 µg/mL)

B1: ffh V48Q (protein)
chain: MFDNLTDRLSRTLRNISGRGRLTEDNVKDTLREVRMALLEADVALPVQREFINRVKEKAVGHEVNKSLTPGQEFVKIVRNELVAAMGEENQTLNLAAQPPAVVLMAGLQGAGKTTSVGKLGKFLREKHKKKVLVVSADVYRPAAIKQLETLAEQVGVDFFPSDVGQKPVDIVNAALKEAKLKFYDVLLVDTAGRLHVDEAMMDEIKQVHASINPVETLFVVDAMTGQDAANTAKAFNEALPLTGVVLTKVDGDARGGAALSIRHITGKPIKFLGVGEKTEALEPFHPDRIASRILGMGDVLSLIEDIESKVDRAQAEKLASKLKKGDGFDLNDFLEQLRQMKNMGGMASLMGKLPGMGQIPDNVKSQMDDKVLVRMEAIINSMTMKERAKPEIIKGSRKRRIAAGCGMQVQDVNRLLKQFDDMQRMMKKMKKGGMAKMMRSMKGMMPPGFPGR
[1]
  fold change of barcode share: 0.58042 ± 0.00041
[2]
  fold change of barcode share: 0.0139 ± 0.0049

B2: ffh L104A (protein)
chain: B1 chain with Q48V, L104A
[1]
  fold change of barcode share: 0.649 ± 0.16
[2]
  fold change of barcode share: 0.00263 ± 0.0026

B3: ffh L187A (protein)
chain: B1 chain with Q48V, L187A
[1]
  fold change of barcode share: 0.2677 ± 0.0015
[2]
  fold change of barcode share: 0.0198 ± 0.022

B4: ffh V103A (protein)
chain: B1 chain with Q48V, V103A
[1]
  fold change of barcode share: 0.39 ± 0.069
[2]
  fold change of barcode share: 0.00694 ± 0.0021

B5: ffh V172A (protein)
chain: B1 chain with Q48V, V172A
[1]
  fold change of barcode share: 0.248 ± 0.029
[2]
  fold change of barcode share: < 0.00315

B6: ffh V172W (protein)
chain: B1 chain with Q48V, V172W
[1]
  fold change of barcode share: 0.34 ± 0.059
[2]
  fold change of barcode share: 0.00453 ± 0.0015

B7: ffh L104W (protein)
chain: B1 chain with Q48V, L104W
[1]
  fold change of barcode share: 0.466 ± 0.26
[2]
  fold change of barcode share: 0.005 ± 0.0029

B8: ffh V103W (protein)
chain: B1 chain with Q48V, V103W
[1]
  fold change of barcode share: 0.502 ± 0.069
[2]
  fold change of barcode share: 0.295 ± 0.34

B9: ffh V172P (protein)
chain: B1 chain with Q48V, V172P
[1]
  fold change of barcode share: 0.34 ± 0.051
[2]
  fold change of barcode share: 0.00441 ± 0.0024

B10: ffh V103Q (protein)
chain: B1 chain with Q48V, V103Q
[1]
  fold change of barcode share: 0.322 ± 0.079
[2]
  fold change of barcode share: 0.00618 ± 0.0033

B11: ffh V172Q (protein)
chain: B1 chain with Q48V, V172Q
[1]
  fold change of barcode share: 0.209 ± 0.047
[2]
  fold change of barcode share: 0.00695 ± 0.0065
